Assay results published in the supplement of paper PMC12889115.
The list shows a part of the results. Rule as the data show it: active = 25% or less and inactive = the rest. Many values rest on one well or one pass, so single values are uncertain.

The molecules below were run on Salmonella enterica serovar Typhimurium SL1344 (assay: intramacrophage bacterial GFP load (SAFIRE), percent of DMSO control (% of DMSO); higher = more intracellular bacteria (less inhibition)). Conditions: 25 µM; system: infected RAW 264.7 macrophages.
Protocol: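 Secondary screen of the 553 primary hits at 25 µM. (i) S. Typhimurium SL1344 grown in Mueller-Hinton broth with 0.5 µg/mL polymyxin B, OD600 read after 18 h. (ii) SAFIRE assay: RAW 264.7 macrophages infected with S. Typhimurium sifB::gfp (MOI 30); compound added 2 h post-infection; cells fixed at 18 h; GFP-positive pixel fraction per macrophage imaged by confocal microscopy and expressed as % of DMSO control.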
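Also: compounds tested were the hits of an earlier 50 µM broth growth screen of a drug-like diversity library run with polymyxin B.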

| Compound | intramacrophage bacterial GFP load |
| --- | --- |
| O=C(c1cn(Cc2ccccc2F)nn1)N(Cc1ccccc1)CC1CC1 | inactive: 79.7 |
| O=C(c1cn(Cc2c(F)cccc2F)nn1)N(Cc1ccccc1)CC1CCC1 | inactive: 122 |
| COc1cccc(CN2CCCC(C(=O)c3ccc(Cl)cc3C)C2)c1O (stereo not drawn) | active: 5.97 |
